According to US20040053370A1:

Biological target: GLP-1 receptor
Test: cell-based or functional assay

B1: Gly^8-Glu^22-GLP-1-C2-IgG1 (Fc fusion)
chain: HGEGTFTSDVSSYLEEQAAKEFIAWLVKGRGSSGASSGAA[omitted - human IgG1 Fc]
  In Vitro Activity (% of Val^8-GLP-1) (% of Val^8-GLP-1): 75
